Records with an inconclusive call do not appear. Calls come from the whole dose curve; as a rule, active = well fitted curve in the direction sought with a large enough effect; inconclusive = small, poorly fitted or top-dose-only effect, or another doubt; inactive = no such curve, though single readings can be large; an effect the other way counts as inactive or inconclusive. The source holds several records for some structures; these can differ, active in one and inactive in another. The source holds more than one record for some entries. They are shown here; other results are not. An entry can have further records. Values given together are repeats (runs, samples, wells, individuals or studies). Marks in square brackets tell the records apart. A, B and so on number the origins entry by entry.
Potency is the fitted concentration of half-maximal effect.

The first test can be described thus: qHTS of pediatric cancer cell lines to identify multiple opportunities for drug repurposing: Primary screen for SK-N-MC cells (AID 1347093). As to conditions: SK-N-MC viability, CellTiter-Glo luminescence, 48 h; series mostly up to 46 µM. (qHTS replaces the single test concentration by a dilution series.)
With `Cn1c(=O)c2[nH]cnc2n(C)c1=O`, the Potency entry was “inactive [sample A] and active: 18.7 µM [sample B]”. Same read-out and setting: the value for `COc1ccc2[nH]cc(CCNC(C)=O)c2c1` was “active: 18.7 µM [sample A] and inactive [sample B]”; that for `CN1C(C(=O)Nc2ccccn2)=C(O)c2ccccc2S1(=O)=O` was “inactive [sample A] and active: 3.32 µM [sample B]”; that for `Nc1nnc(-c2cccc(Cl)c2Cl)c(N)n1` was “inactive [sample A] and active: 14.8 µM [sample B]”. Still for that read-out and setting: the same measure for `CN(C)c1nc(N(C)C)nc(N(C)C)n1`: “inactive [sample A] and active: 18.7 µM [sample B]”.

Another test can be described thus: qHTS of pediatric cancer cell lines to identify multiple opportunities for drug repurposing: Primary screen for BT-37 cells (AID 1347094). The settings on record: BT-37 viability, CellTiter-Glo luminescence, 48 h; series mostly up to 57.3 µM. The gist of the method:
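ATP-based luminescence (CellTiter-Glo) quantifies viability after a 48-hour exposure. Compounds are dosed across 8 or 11 final concentrations; DMSO and 2.3 µM bortezomib serve as controls.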
Consider `CN1C(C(=O)Nc2ccccn2)=C(O)c2ccccc2S1(=O)=O`, for which the Potency entry was “inactive [sample A] and active: 3.06 µM [sample B]”.

For the molecule `CC(C)Cc1ccc(C(C)C(=O)O)cc1` (stereo not given), the Potency entry is “active: 1 nM [sample A] and inactive [sample B]”. For `N[C@@H](Cc1c[nH]c2ccc(O)cc12)C(=O)O`, the Potency entry was “active: 24.3 µM [sample A] and inactive [sample B]”.

The nature of the next test: qHTS of pediatric cancer cell lines to identify multiple opportunities for drug repurposing: Primary screen for NB-EBc1 cells (AID 1347095). As to conditions: NB-EBc1 neuroblastoma viability, CellTiter-Glo luminescence, 48 h; series mostly up to 46 µM.
With `CN1C(C(=O)Nc2ccccn2)=C(O)c2ccccc2S1(=O)=O`, the Potency result is “inactive [sample A] and active: 1.66 µM [sample B]”. Still for that read-out and setting: the value for `CCOC(=O)C(C)(C)Oc1ccc(Cl)cc1` was “active: 20.9 µM [sample A] and inactive [sample B]”.

`OCCN1CCN(CCCN2c3ccccc3Sc3ccc(C(F)(F)F)cc32)CC1`: the Potency result is “active: 2.09 µM [sample A] and inactive [sample B]”. For `N[C@@H](Cc1c[nH]c2ccc(O)cc12)C(=O)O`, the Potency entry was “active: 18.7 µM [sample A] and inactive [sample B]”.

A short description of another test: qHTS of pediatric cancer cell lines to identify multiple opportunities for drug repurposing: Primary screen for NB1643 cells (AID 1347099). Note: nearly all actives have a fitted effect of over 50% in size. As to conditions: NB1643 neuroblastoma viability, CellTiter-Glo luminescence, 48 h; series mostly up to 46 µM.
As for `CCCCc1oc2ccccc2c1C(=O)c1cc(I)c(OCCN(CC)CC)c(I)c1`, the Potency entry was “active: 14.8 µM [sample A] and inactive [sample B]”. As to `CN1C(C(=O)Nc2ccccn2)=C(O)c2ccccc2S1(=O)=O`, the Potency result is “inactive [sample A] and active: 4.69 µM [sample B]”. `COC(=O)Nc1nc2ccc(C(=O)c3cccs3)cc2[nH]1`: the Potency result is “inactive [sample A] and active: 266 nM [sample B]”. In the case of `CCOC(=O)C(C)(C)Oc1ccc(Cl)cc1`, the Potency entry is “active: 23.5 µM [sample A] and inactive [sample B]”. In the case of `CC(CCc1ccc(O)cc1)NCCc1ccc(O)c(O)c1` (stereo not given), the Potency entry is “active: 20.9 µM [sample A] and inactive [sample B]”. Take `OCCN1CCN(CCCN2c3ccccc3Sc3ccc(C(F)(F)F)cc32)CC1`: the Potency entry was “active: 14.8 µM [sample A] and inactive [sample B]”.

As for `CN1CCC(=C2c3ccccc3C=Cc3ccccc32)CC1`, the Potency entry is “inactive [sample A] and active: 11.8 µM [sample B]”. The same measure, in the same setting: the same measure for `CS(=O)(=O)Nc1ccc([N+](=O)[O-])cc1Oc1ccccc1`: “inactive [sample A] and active: 14.8 µM [sample B]”.

(Values after PubChem BioAssay (NCATS).)
